Source: the supplement of paper PMC3724861
Some of the results follow.

System: T1, Caupolican (Caup) homeodomain DNA-binding domain
T1 sequence: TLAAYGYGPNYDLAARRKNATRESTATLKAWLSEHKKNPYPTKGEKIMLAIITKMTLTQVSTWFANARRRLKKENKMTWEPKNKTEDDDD
Experiment: PBM E-score (8-mer, recovered from the published 9-mer minima) (E-score (dimensionless, -0.5 to 0.5)); Drosophila protein; higher = stronger relative binding preference, active = 0.31 or more
In short: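 An enrichment score, with higher meaning stronger, expresses relative binding preference for each short DNA word. The protein used was Caup's homeodomain DNA-binding domain (residues 214-303), produced by in vitro transcription and translation and tested at 100 nM on custom-designed protein binding microarrays. The 8-mer values were recovered from published 9-mer scores, each equal to the lower of its two constituent 8-mer scores.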

Row | Sequence | PBM E-score
1 | CATATCAG | inactive: 0.0708
2 | GATTGCGA | inactive: 0.037
3 | AGACTCCG | inactive: -0.111
4 | ACGCCAGA | ≥ -0.0594
5 | CAAGCTAA | inactive: 0.109
6 | ACCCGACA | inactive: 0.095
7 | CCTATATA | inactive: 0.0917
8 | CGATTGAC | inactive: 0.182
9 | ATACGGGA | inactive: -0.00619
10 | AATATTTG | inactive: 0.189
11 | AGCGTCCA | inactive: -0.0936
12 | CTTCCTGA | inactive: -0.0122
13 | CAACTTCG | inactive: -0.064
14 | ATCCACAT | ≥ 0.137
15 | AGGGGAGG | inactive: -0.181
16 | AAACAGTG | inactive: 0.131
17 | CGCGGTGC | inactive: -0.195
18 | CCAGGGTC | inactive: -0.221
19 | TACGGCAA | inactive: 0.0403
20 | AGGCTGTC | inactive: -0.00861
21 | CCTGACAA | inactive: 0.218
22 | CGAACGAC | inactive: 0.0606
23 | GATCCGCA | inactive: -0.0981

Row | Sequence | PBM E-score
24 | CCCGCATC | inactive: -0.145
25 | GATAAGTA | ≥ 0.158
26 | AGACCTCG | inactive: -0.136
27 | CCCGTCCA | inactive: -0.219
28 | ACCTGTAC | inactive: 0.234
29 | AACCCCAA | inactive: -0.0321
30 | ATTCCAGG | inactive: -0.0214
31 | AAGCGATT | inactive: -0.0271
32 | CCATAGTC | inactive: -0.0479
33 | ACAATGGT | inactive: 0.0851
34 | GAATGGTC | inactive: -0.114
35 | CTTCGGGA | inactive: -0.0578
36 | CCGCGTGA | inactive: -0.123
37 | TCAAGCAA | inactive: 0.0149
38 | AGCCGACG | inactive: -0.14
39 | CATTGCCA | inactive: 0.0634
40 | CCACTCCA | inactive: -0.09
41 | CGAGATCA | inactive: -0.00379
42 | ACGCGGCT | inactive: -0.0981
43 | AGCTACAT | inactive: 0.265
44 | CGAAAATC | inactive: 0.138
45 | TATCGTCA | inactive: 0.142
46 | ACTTCGTG | inactive: 0.0289

Row | Sequence | PBM E-score
47 | CCATTCTA | inactive: 0.0205
48 | AGTACCTG | inactive: 0.106
49 | GACGTAAA | inactive: -0.036
50 | GCCTGCGC | inactive: -0.251
51 | ACACCGGA | inactive: 0.0556
52 | GATAAGAC | inactive: 0.0381
53 | GTAACCAA | inactive: 0.111
54 | ACTTTCAA | inactive: -0.0131
55 | CAGTGAAC | inactive: 0.07
56 | GAAGGGCC | inactive: -0.169
57 | GTCCAATA | inactive: 0.0112
58 | GAGACGCA | inactive: -0.0777
59 | GCTGCGTA | inactive: -0.0415
60 | GCGCGGAA | inactive: -0.172
61 | CAGGTGTA | inactive: 0.225
62 | CAGGTACG | inactive: -0.00719
63 | CGCAATCA | inactive: 0.0581
64 | AAGAAAAT | inactive: 0.0543
65 | CTATAAGC | inactive: -0.00412
66 | GACTACTA | inactive: 0.118
67 | GAGACATC | inactive: 0.0461
68 | CATGCGGG | inactive: -0.13
69 | ATGGCTAC | inactive: 0.107

Row | Sequence | PBM E-score
70 | AGGCGGGA | inactive: -0.0983
71 | CAAGCGTC | inactive: 0.00475
72 | ATAAAGAT | inactive: 0.094
73 | GCCCTACA | inactive: 0.0429
74 | ACTTAGAC | inactive: 0.0462
75 | AGCTTGTA | active: 0.368
76 | GGAGAGAC | inactive: -0.0755
77 | GTGTTAAC | inactive: 0.259
78 | TCGTAGCA | ≥ 0.124
79 | CGCCCACC | inactive: -0.126
80 | TATAGTGA | inactive: 0.142
81 | ACTTAAAT | inactive: 0.122
82 | ACTGTAAG | inactive: 0.147
83 | CACGGAAC | inactive: 0.13
84 | CGTATAGA | inactive: 0.114
85 | AGAAAGGC | inactive: -0.165
86 | CGTCCTTC | inactive: -0.0875
87 | TCTAGCAA | inactive: 0.0631
88 | GCATCTAA | inactive: 0.0538
89 | ACTTAGTC | inactive: -0.0129
90 | ATGGGAAC | inactive: 0.0233
91 | CCCTATCG | inactive: -0.116
92 | CCTACCAC | inactive: -0.0428

Row | Sequence | PBM E-score
93 | ATAGCGGG | inactive: -0.163
94 | CATCATAG | inactive: 0.0652
95 | CAGTCGCG | inactive: -0.117
96 | GGACACAA | inactive: 0.204
97 | ATCTTGCG | inactive: 0.00858
98 | ATGCTCAA | inactive: 0.0574
99 | CACGTTTC | inactive: 0.086
100 | ATCACTGG | ≥ 0.123
101 | GGATGTCA | active: 0.311
102 | CCGTGAGA | inactive: -0.116
103 | CTCTGCTA | inactive: -0.135
104 | ACGCAGTA | inactive: -0.0674
105 | GTCGTAGA | inactive: 0.0905
106 | AGCCCCCT | inactive: -0.322
107 | CCACGCCA | inactive: -0.134
108 | GCTGGTAC | inactive: 0.0272
109 | ACGCGGAC | inactive: -0.0537
110 | CTTGTAGC | inactive: 0.271
111 | AGCCCACT | inactive: -0.166
112 | CGGCGCGA | inactive: -0.157
